Some of the results follow.
test system: PF3D7_0420300 AP2 domain 1 (GST-tagged); assay: gcPBM binding intensity (ln(normalized median fluorescence intensity)); higher = stronger DNA binding
Method in brief: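 An Agilent 4 × 180k array of primer-extended double-stranded 36-bp intergenic genomic probes, with negative controls, was incubated for 1 h with GST-tagged P. falciparum DNA-binding domains expressed in E. coli. Alexa488 anti-GST antibody detected bound protein, scanned at 488 nm. Binding intensity is the highest Masliner-normalised natural-log median intensity across replicate spots of either probe orientation.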

Sequence | gcPBM binding intensity (ln)
TCCAAATACAACTACACACAAACAAAAATTATATAT [CACACA_site881] | 9.81
TTTTTTTTAAGAGATAGTACATAAATATTATAATAT [XGTACX_site4685] | 8.91
AAAATTTTTCTTAAAGCATGCACAATTAAGAAGACG [TGCATGCA_site883] | 9.18
TTAAAATTAATTCACCAGTATTAAAATAAAAACGAA [CACACA_negctrl_site1428] | 9.3
AAATAAAATTTTATGTGTACGCAAAAAGTTGTAAGC [XGTACX_site8911] | 9.39
TACAATCTAAAATACACACACACAAACATATATTTA [CACACA_site3702] | 10.2
AATAAATAAATATATACACACATATATATATAATAT [CACACA_site921] | 9.6
TGAAAAAATATAAAATATAAAATAAAAAATATAAAA [GTGCAC_negctrl_site536] | 9.23
AAGATATATATAGAAAGTACTTATATTTGTATAATT [XGTACX_site8855] | 9.31
ATATTAATATATATGTTTTATTACCATTTTATGTAT [CACACA_negctrl_site1761] | 9.44
TCTACAATTATAATTACACACTATAAAAAAGAAAGA [CACACA_site2984] | 9.37
AAAAATAGGAACCAATATCCAACGTGACTTTATAAT [CACACA_negctrl_site1011] | 9.55
AAAATAATTATGAATTGTACAGGTTTTTTTTTTTTT [XGTACX_site220] | 9.19
GGAAAAAAAAAAAAAAAACACACGGTACATTCAAAC [CACACA_site2715] | 9.67
AAAAAATTTTTAAGCACACACATAGATAATATATAT [CACACA_site1555] | 9.72
ATGGTATCTTTTAGAAGTACATCATGATAATAATTT [XGTACX_site5544] | 9.06
GATCATAATATTTAAAAGAATATATATAAAAAGGAA [XGTACX_negctrl_site310] | 9.24
GTATTAATTTATATATGTACATATGTGATATATATA [XGTACX_site5825] | 9.2
CAAAATTAATAAGTCACACACACATATATAATATAT [CACACA_site798] | 10.1
TATAAAAATATATGCACACAAATAAAAAATTATATA [CACACA_site3629] | 9.44
TATATTTATACAATATGTACATATTATATATATATA [XGTACX_site3098] | 9.03
TGAATTGTAATTTATAATATACGTGGTTTCTACTTA [CACACA_negctrl_site559] | 9.15

Sequence | gcPBM binding intensity (ln)
ATTTAATAACGGCATGCATGTCCTTATATAAATTTA [TGCATGCA_site1012] | 9.11
TATTATATATTATATAGTACATATTTATGTAAGAGG [XGTACX_site3099] | 9.2
CCTTACCAAATAATATGTACACATTTAATGTTATAT [XGTACX_site7840] | 9.29
CACTTAAAAAAAATACGTACACATATATATATATAT [XGTACX_site2054] | 9.21
TATCAGTATACAACAACACACATAATGTTTGTCATC [CACACA_site2980] | 9.71
CAAAAATAAATATAAACACACAATAAATAAATAAAT [CACACA_site891] | 9.91
TTTATATGCAATTAAGTGCATAAGAAAAAAAAAGGA [GTGCAC_site9966] | 9.05
CAAACAAATTGTGAAACACACATATTTATATTTATA [CACACA_site7030] | 9.13
TTATAAAATAAACTTACACACATGAAATATTATAGT [CACACA_site7000] | 9.75
TCATAGCACAAAAAATGTACTTATTATTTAATATTT [XGTACX_site5687] | 9.15
ATGTGATAATTTAATAGTACATAACAGTTTAACAAT [XGTACX_site5854] | 9.68
TTTGTTTTATGTGGTTGTACACAAATACAATTTAAA [XGTACX_site5156] | 8.98
TATATTATATATTTATGTACGTATTTGTAAAAAGAT [XGTACX_site3444] | 9.18
TTATAATAAATATTTATTATATATAATATATATTAC [CACACA_negctrl_site1802] | 8.99
TTTTTTATTAAATATATATAATAATAATAATTTGTA [CACACA_negctrl_site1719] | 8.78
GTTTCCTTAATATTCACACACATATCTATAATATAT [CACACA_site6959] | 9.87
ATAATAATTATATCAGTGCGCATATATATTTATTTA | 9.28
GTTGTGTAATTCGTAACACACATAAAATATATATAA [CACACA_site6059] | 9.22
ATATAGTTCGATATAGTTAGTATGAATTGAAAAATA [CACACA_negctrl_site1826] | 9.09
TTTTTAAAATATTTAACACACAATTTTAATGCATAA [CACACA_site6036] | 9.02
AAAAAAATAAAACACACACACAAAAAAATAAAAATA [CACACA_site465] | 10.2
AAAAACAATCATTTTAAATAAAAATCTCTAATTTAA [GTGCAC_negctrl_site138] | 8.85

Sequence | gcPBM binding intensity (ln)
ATTTGTTCATTTGGTTGTACATAATTTATTTTTATA [XGTACX_site785] | 9.67
ATTTCTTTAATATACACACACCAAAACAAAAAAAAA [CACACA_site6416] | 9.84
TTTTCATTTTTTTTTTTTTTTTTTTTTCTTTTTTTT [CACACA_negctrl_site1312] | 9.22
AAAAAAAAAACAAATGCATGTAATATAAGAATTACA [TGCATGCA_site908] | 9.27
ACTTATAATATTTAGTGTACATATTGTGACTAATAC [XGTACX_site1508] | 9.36
TATTTATAAATTTACACACACACATGTGAACATAAA [CACACA_site1909] | 9.89
ATTTTAAAAAATTAATGTACTTAATTAATACTGAAA [XGTACX_site7702] | 8.78
TATCAAAAAAAAAGTAGTACGATAATAGTTTCCCAA [XGTACX_site1812] | 9.33
GAAATTAAATGACATACACACTATATTATATATTTT [CACACA_site5693] | 9.5
TAGATAGATTAAAATACATGCATATTATTAAAAAAT [TGCATGCA_site739] | 9.18
CACCCATACACATACAAACACACATTCTATATATAT [CACACA_site1600] | 9.77
CATACATACATACATACACACATACATATGTATATA [CACACA_site7216] | 9.56
AGCATAAAAATGATATGTACATATATATATATATAT [XGTACX_site2836] | 9.14
TATCTTCAATGTGAAAGTACTTAAATTGTTATAAAA [XGTACX_site2586] | 8.89
AATCATAAACATTATGCACACAAAAATAAAAAAAAA [CACACA_site8289] | 9.63
ATTTAATGTATTTTGCGTACGAATTATTTTATTTCA [XGTACX_site7331] | 9.44
TGGAATAAAAAAAGGAGTACAATTAATTATTCTTAA [XGTACX_site8299] | 9.24
TATATATATATATATGTGCACATATTTATATGTTTT | 9.16
ATCATTTTTATGTACACACACATATACGTTGAATAT [CACACA_site1865] | 9.89
ACATCATAAAATTTATGTACACATTTTTAATTATAC [XGTACX_site7759] | 9.23
AAGGTATACACTGCTTTATCAAGTTTAACTCTTTTT [XGTACX_negctrl_site118] | 9.26
TATAAAATTTACGTGTGTACATATTTAATAATTTTT [XGTACX_site5001] | 9.4

Sequence | gcPBM binding intensity (ln)
AAGATATGAGGGAATACACACATATTTATATTTATA [CACACA_site6846] | 9.51
TAAATATAGAAACACACACACATTAATACATATATT [CACACA_site3489] | 10
AAATTTGAAATGCATGAACACACACCGCTATAAATG [CACACA_site8230] | 9.68
TAATTTTTTATATATTGTACAAATAATATATGATGT [XGTACX_site268] | 9.19
TTTATGTATTTAATATGTACATATAGTTGTTAATAA [XGTACX_site1938] | 9.21
AAAATGTACGCATATACACACACATAAATAGATACG [CACACA_site9124] | 9.96
GCTATATATTAATGTTGTACTTTATGTTCATATTGT [XGTACX_site3619] | 9.59
AAGAAATAAATACATACACACATATATAAATAAATA [CACACA_site7559] | 9.89
AAGAAATAATTATTATGTACTTAAAAAAATTAAAAT [XGTACX_site7423] | 9.16
ATATATATATAATTATATAAAATATATCATATGTTA [XGTACX_negctrl_site47] | 9.15
CTTTCCATATATGATAGTACACGATAAAAAAAAAAA [XGTACX_site5772] | 9.02
AAAGAAATAAGGTGCACACATATACATATATATATA [CACACA_site429] | 9.61
TTTAAAAAAAATTCATATTATATATATATATATTAT [CACACA_negctrl_site1733] | 8.88
TAATAATAGTACTGACATCAAAATCTTATTAAAAAT [GTGCAC_negctrl_site308] | 9.16
TTCTTTTTTATTTTTCAACACACATAATAAATTTCT [CACACA_site8253] | 9.57
TTCGTAATTTATATCACACACATATATATATAATAA [CACACA_site3115] | 9.51
TACCCTTGCATGTAGGTGCAATTTTTTTTTTTTTTT | 9.3
CAACTTTATACATATAGTACAAGTTATATTTTATTA [XGTACX_site6651] | 9.08
AACGATTTACATCACTGTACTAATGATATACCTCAT [XGTACX_site7463] | 9.38
TATATATATATATATTGTACTATATAGTATCTTTTT [XGTACX_site1646] | 9.38
TATATATTTTCTTTTGCACACTGTTTTCCTTTTTTT [CACACA_site2739] | 9.72
TTACTATAAAATGTCACACATTCTGTTTCCTTACTT [CACACA_site5714] | 9.3
